The record followed here is PubChem BioAssay AID485344 (National Center for Advancing Translational Sciences (NCATS), 2010).

Out of some 340,000 compounds screened, about 6,900 (2%) were called active. Rule as the data show it: active = inhibition above about 30%; inactive = below that, where a call was filed. The entries are a selection whose mix differs from that of the whole data set. The source gives no active or inactive call for entries shown without one.

UniProt P14416, sequence (P14416 whole entry, looked up): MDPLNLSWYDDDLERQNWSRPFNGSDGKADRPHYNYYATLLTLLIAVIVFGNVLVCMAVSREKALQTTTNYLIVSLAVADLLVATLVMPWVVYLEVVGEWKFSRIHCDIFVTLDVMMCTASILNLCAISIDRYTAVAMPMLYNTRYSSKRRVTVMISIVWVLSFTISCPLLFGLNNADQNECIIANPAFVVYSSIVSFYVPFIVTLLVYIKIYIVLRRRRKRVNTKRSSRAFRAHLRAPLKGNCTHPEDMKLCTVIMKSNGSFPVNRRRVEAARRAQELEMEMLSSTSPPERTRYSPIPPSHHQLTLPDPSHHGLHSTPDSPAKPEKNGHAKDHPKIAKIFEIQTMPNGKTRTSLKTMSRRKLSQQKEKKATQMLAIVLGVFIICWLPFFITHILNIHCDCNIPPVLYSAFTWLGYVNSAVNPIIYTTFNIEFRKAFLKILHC

This test concerns the target D(2) dopamine receptor (Homo sapiens) (UniProt P14416). Briefly: HTS Assay for Allosteric Antagonists of the Human D2 Dopamine Receptor: Primary Screen for Antagonists. Also: 0% is about no effect. As to conditions: HEK293 TREx D2 cells, calcium flux, dopamine EC80; at 10 µM; stronger effect = higher value. Put shortly:
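Calcium flux kinetic readout in an inducible HEK293 TREx D2 line plated overnight at 30 C. After 180 s compound exposure, an EC80 dopamine challenge follows with another 180 s kinetic read to detect antagonism.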
For the compound `Cc1ccc(C)c(N2CCN(C(=O)CCNS(=O)(=O)c3ccc4c(c3)CCN4C(=O)C3CC3)CC2)c1`, the inhibition is -10.8%.

For the compound `O=C(Nc1cccc(C(F)(F)F)c1)c1cc(S(=O)(=O)N2CCCC2)c[nH]1`, the inhibition was determined as 17.4%.

With `COc1ccccc1-c1noc(-c2ccc(NCc3ccco3)c([N+](=O)[O-])c2)n1`, the inhibition stood at 13.4%.

As for `COc1ccc(NC(=O)Cn2nnc(C(=O)NCc3ccc4c(c3)OCO4)c2N)cc1`, the inhibition was 7.64%.

Turning to `Cn1c(C(=O)N2CCN(Cc3ccc4c(c3)OCO4)CC2)cc2sccc21`, the inhibition was active: 99.7%.

With `Cc1cccc(N2CCN(C(=O)c3ccc4c(Cl)c5c(nc4c3)CCCC5)CC2C)c1` (configuration not stated), the inhibition is 2.61%.

On to `CCCc1nnc(NC(=O)Cc2coc3ccc(C(C)C)cc23)s1`, for which the inhibition is -12.3%.

As to `O=C(CSc1oc(-c2ccccc2)nc1S(=O)(=O)c1ccc(Cl)cc1)NC1CCCCC1`, the inhibition turned out to be 2.22%.

Consider `COc1ccc(-n2nnc(-c3nsc(NC(=O)c4ccc(C)c(C)c4)n3)c2C)cc1Cl`, for which the inhibition was -2.06%.

For the compound `CC(C)COC(=O)Cn1nnc2sc(-c3ccccc3)cc2c1=O`, the inhibition stood at 14.4%.

As for `COCCCNC(=O)CSc1nc2cc3c(cc2c(=O)n1CCCCCC(=O)NCc1ccc(OC)cc1)OCO3`, the inhibition came to 3.18%.

Take `Cc1cc(C)c(NS(=O)(=O)c2cc(-c3onc(C)c3C)ccc2C)c(C)c1`: the inhibition was 3.39%.

With `Cc1ccc(NC(=O)c2cnc(SCC(=O)N3CCOCC3)n(C)c2=O)cc1C`, the inhibition was found to be 0.681%.

For the compound `CC1CCN(C(=O)c2ccc3c(c2)N(Cc2ccccc2)C(=O)c2ccccc2S3(=O)=O)CC1`, the inhibition was -15.2%.

With `O=C(CN1CCCN(S(=O)(=O)c2ccc(Br)cc2)CC1)Nc1cccc(C(F)(F)F)c1`, the inhibition turned out to be 9.88%.

`CN(C(=O)CSc1nc(C2CCCC2)nc2c1c(=O)n(C)c(=O)n2C)c1ccccc1`: the inhibition is -14.5%.

With `CCN1CCCC1CNC(=O)c1ccc(N2CCOCC2)c(NS(=O)(=O)c2ccc(OC)cc2)c1` (configuration not stated), the inhibition was active: 32.8%.

Take `CC1CCN(C(=O)CSc2nnc(-c3ccccc3)o2)CC1`: the inhibition turned out to be 1.52%.

Consider `COc1ccc(NC(=O)Cn2c(=O)c3cc(Cl)ccc3n3nncc23)cc1`, for which the inhibition came to 0.63%.

As to `CCOc1ccc(C(=O)c2cn(CC(=O)Nc3ccc4c(c3)OCCO4)c3ccc(F)cc3c2=O)cc1`, the inhibition is -16.5%.

With `CC(C)C(=O)Nc1nnc(Cc2ccccc2)s1`, the inhibition is active: 30.3%.

Consider `COC(=O)CN1C(=O)CSc2ccc(S(=O)(=O)Nc3ccc(C(C)=O)cc3)cc21`, for which the inhibition was 5.28%.

As for `CCOC(=O)c1ccc(NC(=O)C(=O)NCCc2ccc(OC)cc2)cc1`, the inhibition is 2.94%.

Take `COc1ccc2oc(=O)c(C(=O)N3CCN(c4cc(Cl)ccc4Cl)CC3)cc2c1`: the inhibition stood at 2.03%.

For `Cc1ccc(C)c(NC(=O)Cn2c(-c3nonc3N)nc3ccccc32)c1`, the inhibition came out at 16.1%.

Take `COc1ccccc1N1CCN(C(=O)c2cnn(C(C)(C)C)c2C2CCN(C(=O)OC(C)(C)C)CC2)CC1`: the inhibition is -7.13%.

`CCCC(=O)Nc1cccc(-c2nc3ncccc3o2)c1`: the inhibition turned out to be 10.9%.

Consider `COc1cc(Cl)c(C)cc1NC(=O)c1nn(-c2ccc(C)cc2)c(=O)n(C)c1=O`, for which the inhibition is -7.55%.

Consider `CCOc1ccc(S(=O)(=O)N(C(C)=O)c2ccc3oc(C)c(C(=O)OC)c3c2)cc1`, for which the inhibition was -17.9%.

For `Cc1ccc(CSc2nc3ccncc3n2Cc2nc(-c3ccc(Cl)cc3)oc2C)cc1`, the inhibition was 4.36%.

With `CCOc1ccc(N2CC(NC(=O)c3cc4ccccc4o3)CC2=O)cc1` (configuration not stated), the inhibition is -13.6%.

Regarding `CCCOC(=O)c1c(NC(=O)c2cc3nc(-c4ccc(OC)cc4)cc(C(F)(F)F)n3n2)sc2c1CCCC2`, the inhibition is 4.74%.

In the case of `COc1ccccc1CNC(=O)CCCN1C(=O)CCn2nc(-c3cn(C)c4ccccc34)cc21`, the inhibition came to 4.9%.

For the compound `COc1ccccc1NCc1nnc2n1CCCCC2`, the inhibition amounted to 9.07%.

As for `Cc1ccc2c(c1)N(CC(=O)NCCCN1CCCCC1)C(=O)c1cccnc1O2`, the inhibition was -19.8%.

In the case of `COCCn1c(C)cc(/C=C2/SC(=O)N(CC(=O)N3CCCC3)C2=O)c1C`, the inhibition is active: 34.4%.

As for `Fc1ccc(C(c2nnc(-c3ccccc3)o2)N2CCN(c3ccccc3)CC2)c(Cl)c1` (configuration not stated), the inhibition is -3.97%.

As to `CC(C)C(=O)Nc1c(C(=O)N2CCN(c3ccccc3F)CC2)oc2ccccc12`, the inhibition came to 10.2%.

As for `O=C(Nc1ccccc1N1CCOCC1)c1cccc(NS(=O)(=O)c2ccc(F)c(F)c2)c1`, the inhibition was active: 47.7%.

Turning to `Cc1ccc(-c2nc3sc(CCNC(=O)c4ccco4)c(C)n3n2)cc1`, the inhibition was -19.1%.

With `Cc1ccc(C(=O)Nc2cc3cc(Cl)ccc3oc2=O)cc1`, the inhibition came to 3.26%.

Consider `Cc1ccc(-c2nc(CCNC(=O)C(=O)Nc3ccc(F)cc3F)cs2)cc1`, for which the inhibition was 5.59%.

In the case of `Cc1nc2nncn2c(Nc2ccc(F)cc2)c1C`, the inhibition is 8.9%.

Take `COc1ccc(Cl)cc1NC(=O)c1cc2ccccn2n1`: the inhibition is 4.86%.

As for `CCC(=O)N1CCc2cc(S(=O)(=O)NCCC(=O)NCc3ccc(OC)cc3)ccc21`, the inhibition turned out to be 0.11%.

With `COc1cccc(-n2c(=O)c3sccc3n(Cc3cc(=O)n4cc(Cl)ccc4n3)c2=O)c1`, the inhibition was -21.4%.

On to `O=C(CCN1C(=O)S/C(=C\c2ccccc2)C1=O)N1CCCCC1`, for which the inhibition was active: 35%.

Consider `CC(C)c1ccc(N2C(=O)CSC23C(=O)N(Cc2ccccc2F)c2ccccc23)cc1` (configuration not stated), for which the inhibition was -9.41%.

For the compound `Cc1ccc(NC(=O)N2CCC(CN3CCCCCC3)CC2)c(Cl)c1`, the inhibition is 2.46%.

On to `Cc1nc(-c2ccc(S(=O)(=O)Nc3ccc(OC(F)(F)F)cc3)cc2)co1`, for which the inhibition is 9.53%.

For the compound `CCCNC(=O)c1c(NC(=O)c2ccccc2F)sc2c1CCCCC2`, the inhibition was -2.5%.

`Cc1cccc(C(=O)OCc2cc(=O)n3nc(C4CC4)sc3n2)c1`: the inhibition came to 5.64%.

With `CC(C)Oc1ccc(CNS(=O)(=O)c2csc(C(N)=O)c2)cc1`, the inhibition was 0.126%.

Turning to `CCOc1ccccc1NC(=O)CCc1nc(-c2cccc(C)c2)no1`, the inhibition is -10.9%.

Turning to `O=C1c2ccccc2C(=O)C1(c1ccccc1)N1CCN(c2cccc(C(F)(F)F)c2)CC1`, the inhibition stood at 11.1%.

In the case of `COc1ccc(-c2nc(C)c(CCNC(=O)c3cccs3)s2)cc1`, the inhibition was 9.93%.

On to `Cc1ccccc1-c1nnc(SCC(=O)N2CCCc3ccccc32)o1`, for which the inhibition stood at 2.98%.

In the case of `CCCS(=O)(=O)N1CCCC(C(=O)NCCCN2CCN(c3cccc(Cl)c3)CC2)C1` (configuration not stated), the inhibition is active: 51.2%.

With `Cc1cc2nc(-c3cccc(NC(=O)COc4ccc(C(C)C)cc4)c3)oc2cc1C`, the inhibition came to 10.4%.

Take `Cc1ccc(N(C)S(=O)(=O)c2c(-c3ccccc3)csc2C(=O)O)cc1`: the inhibition is -12.1%.

Take `c1ccc(N2CCN(Cc3cn4ccccc4n3)CC2)cc1`: the inhibition was active: 36.6%.

Consider `COc1ccc(N2CCN(C(=O)c3c(C)oc4nc(C)nc(N5CCCC5)c34)CC2)cc1`, for which the inhibition was -0.34%.
